Over roughly 33,000 sequences, “E-score (-0.5 to 0.5)” has its median near -0.012; the highest 2% begin near 0.27. This is one part of the list.
Each sequence was assayed against T1, Vhr1 (UniProt P40522) (assay: PBM E-score (8-mer binding enrichment) (E-score (-0.5 to 0.5)); higher = stronger / more preferred TF binding; most listed sequences are background and not binding sites). Conditions: protein concentration: 200 nM; construct: GST-full length.
T1 sequence: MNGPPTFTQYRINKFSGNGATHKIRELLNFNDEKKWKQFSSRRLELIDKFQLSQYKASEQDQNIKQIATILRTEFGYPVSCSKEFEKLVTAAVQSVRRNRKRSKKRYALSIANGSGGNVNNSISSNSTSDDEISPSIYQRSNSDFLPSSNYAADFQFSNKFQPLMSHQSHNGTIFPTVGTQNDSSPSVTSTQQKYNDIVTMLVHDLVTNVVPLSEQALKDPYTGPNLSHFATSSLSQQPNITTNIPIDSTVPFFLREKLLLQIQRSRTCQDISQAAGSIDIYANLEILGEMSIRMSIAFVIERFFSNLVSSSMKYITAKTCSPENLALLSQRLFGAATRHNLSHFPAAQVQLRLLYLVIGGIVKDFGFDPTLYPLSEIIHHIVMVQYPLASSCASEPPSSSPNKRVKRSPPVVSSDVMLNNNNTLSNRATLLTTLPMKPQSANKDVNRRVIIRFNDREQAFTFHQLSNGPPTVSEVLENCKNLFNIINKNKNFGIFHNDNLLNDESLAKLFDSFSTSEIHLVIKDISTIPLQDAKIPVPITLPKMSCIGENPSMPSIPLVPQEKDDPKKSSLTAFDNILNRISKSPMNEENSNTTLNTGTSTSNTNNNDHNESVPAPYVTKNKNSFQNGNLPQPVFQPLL
Procedure, shortened: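 Yeast transcription factors carrying a GST tag, as full-length proteins or DNA-binding domains, were produced by PURExpress in vitro transcription/translation. About 100-200 nM protein was applied to universal all-10-mer Agilent arrays, double-stranded by primer extension on fresh or once-stripped slides. Bound protein was detected with fluorescent anti-GST, and scans were normalised with masliner. The Universal PBM Analysis Suite gave each ungapped eight-base word, pooled with its reverse complement, an E-score, a modified Wilcoxon-Mann-Whitney statistic.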

Sequence	PBM E-score
ACCCTTTC	-0.147
ACAGACGC	-0.0186
GAACGTGA	-0.00628
GCCTCGTA	-0.0631
CACCTGCA	0.0182
GTAGCCGA	-0.05
CATGCTAA	-0.0194
GACGCTCC	-0.1
AACCGACC	0.13
ATGCTGAG	0.0978
CAACGCAG	-0.00574
GAATAACC	-0.147
GCCTGAAA	-0.0217
GCGCACCC	0.172
ACACACGG	0.155
CTGTCAAG	-0.135
GCTTTACC	-0.122
CCTCAAAA	-0.153
CTGACAAG	-0.0585
GGAACCCC	-0.198
GGCCTACC	-0.0215
TAACTGGA	-0.123
GCCGTGCA	-0.0556
CCTCGTAC	0.00947
AACTTTTA	-0.191

Sequence	PBM E-score
ATGAGTAC	0.347
CCTAGGTC	0.0186
ATCAAAAG	-0.182
AAGACGCC	0.0274
CTAATATA	-0.0362
AGGCCAGG	-0.0837
CAGAGTGG	-0.0459
AGAAACAG	-0.128
AGACGCCT	-0.223
GATTACCA	0.173
CATTAGGG	-0.198
AAAGTAGT	0.0363
ACGTAGTG	-0.0677
TCAATCGA	0.156
ATCCCAAA	-0.2
CCAGGCCC	-0.0629
ATTGCCCC	-0.107
CCTACTAC	-0.0741
ACATCACA	0.113
GCGTCAGA	-0.153
GCCGATTA	0.0479
AACTACTA	0.078
GGCACAGA	-0.092
AGCCGCCT	0.111
CGCGGACG	-0.145

Sequence	PBM E-score
ACTCTGAT	0.0653
ACTGGCGC	0.0737
CCCTTCTA	-0.218
ATTGAACG	-0.0248
ATCGTTGC	-0.0671
CTGGTAAA	-0.00847
ACGCTTTG	-0.068
GCTATCCC	-0.137
CAGCCTAG	0.0804
AAGCAAAT	-0.165
AGGACCAG	-0.133
ATCACGAG	-0.0506
AGCGTAAG	-0.188
CATGTCGC	-0.104
AGCTAGGC	-0.0605
ACGTCCCA	-0.131
ACTGCGAA	-0.322
AGGGTAGA	-0.0847
GGTACGGA	0.0649
ATGACTAC	0.462
CTAAGCGA	-0.136
CCAGTAAG	-0.0983
GCGCAGCA	-0.00237
GCTCCTAC	-0.125
GCAGCGAC	0.167

Sequence	PBM E-score
GGTTGCCA	0.141
AGCCCCCG	-0.234
ACAAGATA	0.0549
CGCCAACG	-0.0405
GGACGGAA	0.0124
CTGTATGC	-0.0249
GAAAGATC	-0.173
GGGGGGAA	0.0392
CAATGAGG	-0.31
AGTGCTAT	0.0504
CAATAGGC	-0.112
GGAAGGTA	-0.0276
GAGTAACC	0.106
GAGGGGCA	-0.113
TGTATGAA	0.0681
AACTTCAT	-0.0914
GGGATTCA	0.134
CCTGTTCG	-0.153
CTCGTATA	0.0512
CCACCTCG	-0.085
ACTGCCTA	0.139
AAAAGTAA	-0.0719
CCGAAAGG	-0.0649
CACGACGG	0.0606
CGATAGCC	-0.132

Sequence	PBM E-score
AGGTGAAT	0.175
ACATCCAG	0.101
AAGGCGCA	0.0562
AGAGAAAC	-0.017
CCAATGCA	0.0183
GTAAACGA	-0.0754
AACCGGCC	-0.071
GTGACTGA	0.384
GCGAGAAA	-0.105
TAACGTCA	-0.055
CTGGGGCA	-0.115
AGAACCCC	-0.107
GGGCAATA	-0.0887
ATATCAGC	-0.0247
CGACTTTA	-0.138
TGAATGAA	0.0893
AAAGACGG	-0.174
AACGTGTA	-0.0949
GCGGTGTA	0.107
CTAGAAAG	-0.216
AGATACCT	-0.0877
CTAAACTC	-0.264
TCATTACA	0.0618
ATTACATA	0.124
AGATTACT	-0.00398

Sequence	PBM E-score
CGGGCAGA	0.171
CACTCAAA	-0.0333
GAACAACA	0.0642
AGAAGACG	0.0127
CAGTGCGG	0.0423
CTTTCTAC	-0.168
CATCAATC	0.164
AGTGTGTG	0.222
GAGGAACC	-0.126
CGCCTTCA	-0.173
AACTGGAA	-0.167
CCGCTTGC	0.00952
AGCTCAGA	-0.0762
CAGGTTCC	-0.0388
GGTCTTAC	-0.0377
ACTTGGCC	-0.126
AATATGGA	0.118
ATACAGCC	-0.00486
CACCCCGC	0.0543
ACGCACCT	0.0115
CTTGTGAC	0.111
CCATACCA	-0.0322
ATGGACCG	0.00926
CATGGTTC	0.364
ATTGAGGC	-0.202

Sequence	PBM E-score
ACCATCTG	0.148
CCTTCCTA	-0.259
AGAACGCG	0.107
CCAGGAAA	-0.0395
CGCGCGAA	0.101
CGCTTCTA	0.0541
TGCTAGCA	-0.113
GCACACTA	0.105
CCGCCTTC	0.0298
GCGTTTAA	-0.23
AAGTGCGA	-0.0776
CCCGAAGG	0.0654
CCACTGTC	-0.114
AGTTAAAG	-0.0442
AACACATG	0.192
CTCAGCAA	-0.0205
CAGGGCTA	-0.13
AGTCTATA	0.0436
AATTAAAG	-0.145
ACCGTGGC	-0.115
ATGATGAC	0.303
AATCAAAG	-0.211
AAGCGAAA	-0.188
GACGGCGA	-0.00554
ACATTCCG	-0.114

Sequence	PBM E-score
AACGAAGT	-0.27
ACCGTATA	0.0404
AGACGGAT	0.0272
ATAGAAAA	-0.122
AAGCCGCT	-0.187
CAGAGGCA	-0.159
CGAATTCG	-0.164
GAACGCGA	0.255
AGAGCAGA	-0.101
ATATGTAC	0.161
CGCGCACC	0.125
CCTGAATA	0.211
CACACAGC	0.307
AATATTGC	0.0591
AATGACGA	-0.0492
AGCGCTCA	-0.0485
CCTTGTCA	-0.111
AAATGTGA	-0.117
AGATACTG	0.0977
ACTCTCAC	0.115
CATAATAA	-0.0188
AATTGCGT	-0.079
GACTACTC	0.31
CCGTGCAG	-0.144
ATCTTGCA	0.0657

Sequence	PBM E-score
CCGGACAC	-0.00587
GAAGCACC	-0.156
CGTCCAGA	-0.11
GCATATCC	0.113
ACGTGTAC	-0.0566
AGTATAAT	0.163
CTCGCCGA	0.118
ATCGGATC	-0.0332
AGGCGTTA	-0.172
CAATCCAA	-0.0655
CAAAGATA	0.0272
TACTACCA	0.15
AGAACAAT	0.0975
CGTATAGC	0.113
ATTGGGAG	-0.115
ACCAAAGA	-0.0588
TAGCAATA	-0.0132
CACTACTC	0.205
CCAACACC	-0.0592
